# Data reported in the supplement of paper PMC12217912.
# Some of the results follow. Sequences were assembled here from the parent chain. Values near 0.05 are background.
# B1: TEV protease; numbered along this chain (parent)
# chain: MGESLFKGPRDYNPISSSICHLTNESDGHTTSLYGIGFGPFIITNKHLFRRNNGTLVVQSLHGVFKVKDTTTLQQHLVDGRDMIIIRMPKDFPPFPQKLKFREPQREERICLVTTNFQTKSMSSMVSDTSCTFPSGDGIFWKHWIQTKDGQCGSPLVSTRDGFIVGIHSASNFTNTNNYFTSVPKNFMELLTNQEAQQWVSGWRLNADSVLWGGHKVFMVKPEEPFQPVKEATQL
# Variants of: B1
# Assay: raw area under fraction-flipped curve 0-4 h after induction (AUC4h, not background-subtracted), DNA-recorder readout of cleavage of the substrate (dimensionless); higher = more cleavage of the substrate by the protease variant
# Settings: temperature: 34 °C; time window: 0-4 h after rhamnose induction
# Method: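 In vivo DNA recorder in E. coli TOP10(DE3) ΔrhaA at 34 °C. Each TEVp single-site mutant (parent TEVp 0) is paired with a single-site variant of the 7-mer TEVs (canonical ENLYFQ|S). The substrate sits between flexible linkers in a Bxb1-sfGFP-TEVs-SsrA fusion, so cleavage stabilises Bxb1 and speeds flipping of a recombination array, read by NGS. The value is the raw area under the fraction-flipped curve over 0-4 h after rhamnose induction (AUC4h), with ≥20 reads per time point. It is not background-subtracted; inactive controls average about 0.047.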
# 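Further: Bxb1 expression induced with 0.2% (w/v) L-rhamnose at OD600 near 0.5, cultures sampled hourly, flipped fraction per protease–substrate barcode pair counted by paired-end Illumina sequencing.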
Variant,area with substrate EALYFQS,area with substrate EELYFQS,area with substrate EFLYFQS,area with substrate EHLYFQS,area with substrate EILYFQS,area with substrate EKLYFQS,area with substrate ELLYFQS,area with substrate EMLYFQS,area with substrate ESLYFQS,area with substrate EVLYFQS,area with substrate ECLYFQS,area with substrate EDLYFQS,area with substrate EGLYFQS,area with substrate EPLYFQS,area with substrate EQLYFQS,area with substrate ETLYFQS,area with substrate ERLYFQS,area with substrate EWLYFQS,area with substrate EYLYFQS
D82H,0.0601,0.0543,0.078,0.0319,0.0544,0.021,0.056,0.0621,0.0598,0.0514,,,,,,,,,
D82L,0.0537,,,,,0.0348,0.0398,,0.0573,0.0595,0.0599,0.0514,0.041,0.0503,0.0537,0.0526,,,
I84A,0.106,,,0.0843,0.0718,,0.0822,0.0881,0.0792,0.072,0.0583,,,,0.0806,0.075,,,
I84S,0.061,0.0776,,0.0912,0.0791,0.0766,,0.0658,0.0721,0.0649,0.0693,,,0.0642,0.0824,0.0542,0.0621,0.0608,0.0616
I85T,0.0653,0.0632,,,0.0577,,,0.077,0.069,0.0571,,,0.0587,0.0679,0.0578,,0.0916,,0.0459
I85Y,0.0635,,0.0507,0.0483,0.0579,0.0622,,0.0772,0.0669,0.0605,,0.0636,,0.0588,,,0.0563,,
R87H,0.114,,,,,0.113,,,,,0.0937,,,0.109,,,,,
P89L,0.0669,,0.0811,0.0736,0.065,0.0585,,,0.0785,,,,,,,0.0655,0.0715,,
P89Y,0.0899,,,0.0846,,0.0583,0.0595,,0.0644,0.0754,0.0759,,,,0.0878,,0.0678,,
K90G,0.133,,0.0989,,0.107,0.108,0.0867,,0.111,,,0.104,0.105,,,,,,
K90H,0.101,,,,0.0945,0.0799,0.0856,0.113,0.0898,0.0912,0.11,0.137,0.0767,0.128,,0.081,0.0995,,
K90V,0.11,,0.109,,,0.112,,,0.0945,0.0893,0.107,,0.0954,0.0955,0.11,,,,
P94A,0.13,,,,,,0.102,,0.102,,0.107,,,,0.113,,,,0.103
P94T,0.126,,,,0.115,0.118,0.122,,0.106,0.0971,0.111,,,,0.127,,,0.11,
P94W,0.118,0.119,,,0.107,0.118,,0.0506,0.14,0.0994,,0.118,,0.112,0.116,0.0897,0.086,,0.0958
F95A,0.108,0.093,,0.104,0.0663,0.0853,0.0754,0.0863,0.0882,0.0863,0.0904,,,0.105,,0.0824,0.0922,,
F95H,0.101,0.108,0.0831,,0.0918,0.109,0.0927,0.0816,,0.0763,0.114,,0.0995,0.0843,0.109,,,,0.0953

Variant,area with substrate EALYFQS,area with substrate EELYFQS,area with substrate EFLYFQS,area with substrate EHLYFQS,area with substrate EILYFQS,area with substrate EKLYFQS,area with substrate ELLYFQS,area with substrate EMLYFQS,area with substrate ESLYFQS,area with substrate EVLYFQS,area with substrate ECLYFQS,area with substrate EDLYFQS,area with substrate EGLYFQS,area with substrate EPLYFQS,area with substrate EQLYFQS,area with substrate ETLYFQS,area with substrate ERLYFQS,area with substrate EWLYFQS,area with substrate EYLYFQS
Q97A,0.138,0.122,,,0.0809,,,0.103,0.108,0.107,0.115,,,,,,0.112,,0.105
Q97H,0.162,,,,,0.0868,0.0947,0.101,0.0752,,0.0921,,,,,0.106,0.086,,0.123
K98F,0.1,,,,,0.0842,,,0.0984,0.0995,0.0486,0.12,0.0872,,0.105,0.105,,0.104,0.102
K98N,0.108,,,,0.0966,0.141,,0.0992,0.078,0.104,0.0771,0.127,,0.12,,,0.106,0.101,
K98P,0.11,0.116,,,0.0983,0.094,0.0858,0.0954,0.101,,,0.0971,0.0876,0.112,0.145,0.122,,0.0933,
K98S,0.108,0.127,,0.095,0.0949,,0.103,0.108,0.106,,0.1,,0.0969,0.132,0.121,,,0.0966,0.174
L99Q,0.105,0.122,,0.076,0.0893,0.0971,,0.104,0.105,,,,0.0757,,0.115,,0.121,,
L99R,0.105,0.0964,0.0697,0.0917,0.0956,0.094,0.0912,0.0941,0.0933,0.0844,,0.102,,,0.0928,0.114,0.0784,0.0763,0.0921
L99Y,0.0836,0.0761,0.0684,,,0.0745,,,0.0706,0.0677,,,,,0.08,0.0815,,,
K100G,0.115,,,,0.0781,0.0598,0.0857,,0.0944,0.0989,,0.109,0.0984,0.103,0.104,0.083,,0.0964,0.12
K100Y,0.0992,,0.135,,0.0922,0.0562,,0.151,0.0978,,0.107,,,,0.144,,0.0975,,
F101V,0.096,,,0.0758,,0.0523,,,,,0.0859,0.0837,0.0714,,0.0732,0.0807,,,
R102M,0.0792,0.0652,0.0539,0.0551,,0.0536,,0.0569,0.0676,0.0563,0.071,,0.0541,0.0354,0.0574,0.0548,0.0601,0.0456,0.0458
E103T,0.15,0.142,,,0.0858,0.118,,,,0.0911,0.0982,,0.0916,,,0.0933,0.0801,,
Q105I,0.122,,,,0.0802,,0.0743,0.11,0.104,0.108,,,,,0.101,,,,
Q105L,0.111,,,0.184,,0.0953,0.0489,0.118,,,0.109,,,,0.06,0.129,0.104,0.102,
